Publication PMC9911399, “Two distinct binding modes provide the RNA-binding protein RbFox with extraordinary sequence specificity”
Residue numbers refer to the chain shown, from its start. The list shows a part of the results.

T1: RBFOX1 RRM RbFoxmut (Fox-RRM*) (Homo sapiens, UniProt Q9NWB1 109-208, R118D;E147R;N151S;E152T)
T1 sequence: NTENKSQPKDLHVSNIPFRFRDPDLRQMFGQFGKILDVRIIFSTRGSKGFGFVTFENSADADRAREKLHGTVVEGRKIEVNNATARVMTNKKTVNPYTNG

B1: GCAUCUG (DNA:RNA)
RNA: GGGAGACCGGAAUUCAGAUUGUCCGCAUCUGUUAAAUCCCGUCGUAGCCACCA
DNA 1: CAATCTGAATTCCGGTCTCCC
DNA 2: TGGTGGCTACGACGGGATT
B2: CGGGUAG (DNA:RNA)
RNA: B1 RNA with G25C, C26G, A27G, U28G, C29U, U30A
DNA 1: CAATCTGAATTCCGGTCTCCC
DNA 2: TGGTGGCTACGACGGGATT
B3: GCAUUGG (DNA:RNA)
RNA: B1 RNA with C29U, U30G
DNA 1: CAATCTGAATTCCGGTCTCCC
DNA 2: TGGTGGCTACGACGGGATT
B4: CCAGGCC (DNA:RNA)
RNA: B1 RNA with G25C, U28G, C29G, U30C, G31C
DNA 1: CAATCTGAATTCCGGTCTCCC
DNA 2: TGGTGGCTACGACGGGATT
B5: AGGACCA (DNA:RNA)
RNA: B1 RNA with G25A, C26G, A27G, U28A, U30C, G31A
DNA 1: CAATCTGAATTCCGGTCTCCC
DNA 2: TGGTGGCTACGACGGGATT
B6: UUGCUUU (DNA:RNA)
RNA: B1 RNA with G25U, C26U, A27G, U28C, C29U, G31U
DNA 1: CAATCTGAATTCCGGTCTCCC
DNA 2: TGGTGGCTACGACGGGATT
B7: GUUGAGG (DNA:RNA)
RNA: B1 RNA with C26U, A27U, U28G, C29A, U30G
DNA 1: CAATCTGAATTCCGGTCTCCC
DNA 2: TGGTGGCTACGACGGGATT
B8: AGGCGGU (DNA:RNA)
RNA: GGGAGACCGGAAUUCAGAUUGUCCAGGCGGUUUAAAUCCCGUCGUAGCCACCA
DNA 1: CAATCTGAATTCCGGTCTCCC
DNA 2: TGGTGGCTACGACGGGATT
B9: CCUAUCC (DNA:RNA)
RNA: B1 RNA with G25C, A27U, U28A, C29U, U30C, G31C
DNA 1: CAATCTGAATTCCGGTCTCCC
DNA 2: TGGTGGCTACGACGGGATT
B10: UAUAUAC (DNA:RNA)
RNA: GGGAGACCGGAAUUCAGAUUGUCCUAUAUACUUAAAUCCCGUCGUAGCCACCA
DNA 1: CAATCTGAATTCCGGTCTCCC
DNA 2: TGGTGGCTACGACGGGATT
B11: UCCGACG (DNA:RNA)
RNA: B1 RNA with G25U, A27C, U28G, C29A, U30C
DNA 1: CAATCTGAATTCCGGTCTCCC
DNA 2: TGGTGGCTACGACGGGATT
B12: CAAGCAC (DNA:RNA)
RNA: B10 RNA with U25C, U27A, A28G, U29C
DNA 1: CAATCTGAATTCCGGTCTCCC
DNA 2: TGGTGGCTACGACGGGATT
B13: GCGGUGG (DNA:RNA)
RNA: B1 RNA with A27G, U28G, C29U, U30G
DNA 1: CAATCTGAATTCCGGTCTCCC
DNA 2: TGGTGGCTACGACGGGATT
B14: UCUGCUA (DNA:RNA)
RNA: B1 RNA with G25U, A27U, U28G, G31A
DNA 1: CAATCTGAATTCCGGTCTCCC
DNA 2: TGGTGGCTACGACGGGATT
B15: ACGUAAU (DNA:RNA)
RNA: B8 RNA with G26C, C28U, G29A, G30A
DNA 1: CAATCTGAATTCCGGTCTCCC
DNA 2: TGGTGGCTACGACGGGATT
B16: GAAUAGG (DNA:RNA)
RNA: B1 RNA with C26A, C29A, U30G
DNA 1: CAATCTGAATTCCGGTCTCCC
DNA 2: TGGTGGCTACGACGGGATT
B17: AUUAGUC (DNA:RNA)
RNA: B10 RNA with U25A, A26U, U29G, A30U
DNA 1: CAATCTGAATTCCGGTCTCCC
DNA 2: TGGTGGCTACGACGGGATT
B18: GUUUCGG (DNA:RNA)
RNA: B1 RNA with C26U, A27U, U30G
DNA 1: CAATCTGAATTCCGGTCTCCC
DNA 2: TGGTGGCTACGACGGGATT
B19: GCGAUCC (DNA:RNA)
RNA: B10 RNA with U25G, A26C, U27G, A30C
DNA 1: CAATCTGAATTCCGGTCTCCC
DNA 2: TGGTGGCTACGACGGGATT
B20: CGGUGGU (DNA:RNA)
RNA: B8 RNA with A25C, C28U
DNA 1: CAATCTGAATTCCGGTCTCCC
DNA 2: TGGTGGCTACGACGGGATT

Molecular target: T1, RBFOX1 RRM RbFoxmut (Fox-RRM*)
Experiment: EMSA; HiTS-Eq, 1 nM pool, 10 min; buffer printed only for the single-RNA assays: 10 mM Tris pH 7.5, 150 mM NaCl, 3.4 mM EDTA, 0.001% NP-40, 30 C
Conditions: tags: His6 N-terminal (pET28a); label: 5' 32P
How it was run: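 Purified RbFox RRM, wild type or mutant, was incubated for 10 min in 50 µL with 1 nM of a 5′-radiolabelled RNA pool carrying 7 randomized nucleotides, whose flanks were annealed to DNA oligonucleotides, over a series of increasing protein concentrations. Unbound RNA was resolved on 8% native PAGE, cut out, reverse-transcribed, barcoded by PCR and sequenced on an Illumina HiSeq 2500. Relative association constants were derived from changes in read counts for each RNA species versus the control reaction and normalised to the cognate motif.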

Binder	binding signal
B1	0.264 KA relative to UGCAUGU
B2	0.175 KA relative to UGCAUGU
B3	0.179 KA relative to UGCAUGU
B4	0.178 KA relative to UGCAUGU
B5	0.0698 KA relative to UGCAUGU
B6	0.102 KA relative to UGCAUGU
B7	0.0916 KA relative to UGCAUGU
B8	0.0942 KA relative to UGCAUGU
B9	0.0723 KA relative to UGCAUGU
B10	0.0907 KA relative to UGCAUGU
B11	0.112 KA relative to UGCAUGU
B12	0.0665 KA relative to UGCAUGU
B13	0.121 KA relative to UGCAUGU
B14	0.116 KA relative to UGCAUGU
B15	0.112 KA relative to UGCAUGU
B16	0.0846 KA relative to UGCAUGU
B17	0.0751 KA relative to UGCAUGU
B18	0.0724 KA relative to UGCAUGU
B19	0.058 KA relative to UGCAUGU
B20	0.118 KA relative to UGCAUGU
